The record followed here is the supplement of paper PMC4604168 (melanoma cell lines).

Structures are written as SMILES. This is one part of the list. Single values are uncertain, as repeats are few or missing.

Test systems include SkMel28; SkMel2; SkMel30; SkMel5; UACC257; UACC62; WM115; WM1716; WM3526.
What all share (test): cell count relative to DMSO control; melanoma cells; higher = more viable cells
Holding throughout (details): library dose: standard library concentration; 72 h
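Further: cells treated in 1,536-well plates, then fixed and DAPI-stained, with nuclei counted from automated high-throughput microscope images.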

Turning to `O=C(O)c1ccc2c(c1)nc(Nc1cccc(Cl)c1)c1ccncc12` + Cc1cc(SCc2sc(-c3ccc(C(F)(F)F)c(F)c3)nc2C)ccc1OCC(=O)O [GW0742] (first compound 2 µM, partner dose 10 µM), the cell count was found to be 56% in the experiment on SkMel28; 83.9% in the experiment on SkMel2; 75.5% with SkMel30; 85.8% in the experiment with SkMel5; 85.9% in the experiment with UACC257; 61.9% in the experiment with UACC62. Besides, the cell count in the experiment on WM115 worked out at 110%; in the experiment on WM1716 it was 103%; in the experiment with WM3526, 74.1%.

`CO[C@H]1C[C@@H]2CC[C@@H](C)[C@@](O)(O2)C(=O)C(=O)N2CCCC[C@H]2C(=O)O[C@H]([C@H](C)C[C@@H]2CC[C@@H](OCCO)[C@H](OC)C2)CC(=O)[C@H](C)/C=C(\C)[C@@H](O)[C@@H](OC)C(=O)[C@H](C)C[C@H](C)/C=C/C=C/C=C/1C` [everolimus] + Cc1cc(SCc2sc(-c3ccc(C(F)(F)F)c(F)c3)nc2C)ccc1OCC(=O)O [GW0742] (first compound 0.1 µM, partner dose 10 µM): the cell count worked out at 48.1% with SkMel28; 70.9% in the experiment with SkMel2; 73.5% in the experiment with SkMel30; 69.7% in the experiment with SkMel5; 104% with UACC257; 81% in the experiment with UACC62. Further, the figures for the cell count with WM115, in the experiment with WM1716 and in the experiment with WM3526 were 81.3%, 105% and 63.5%, respectively.

On to `CC(C)C[C@H](NC(=O)[C@H](Cc1ccccc1)NC(=O)c1cnccn1)B(O)O` [Bortezomib] + Cc1cc(SCc2sc(-c3ccc(C(F)(F)F)c(F)c3)nc2C)ccc1OCC(=O)O [GW0742] (first compound 0.005 µM, partner dose 10 µM), for which the cell count was 25.3% in the experiment with SkMel28; 34.6% in the experiment with SkMel2; 25.7% in the experiment with SkMel30; 29.5% with SkMel5; 73.8% in the experiment on UACC257; 62.3% in the experiment on UACC62. Also, the values for the cell count in the experiment with WM115, in the experiment on WM1716 and with WM3526 were 26.1%, 15.5% and 25.9%, respectively.
